Experiment in all cases: ITC; 2.5-4 mM apo-IscU (injection syringe) titrated into 0.25-0.4 mM HscB (sample cell); 25 °C; 50 mM HEPES pH 7.5, 150 mM NaCl, 4 mM TCEP
Holding throughout (details): both partners purified

In assay [1] the target is T1, HscB(L96A) (E. coli, UniProt P0A6L9 1-171, L96A).
T1 construct: HscB, Escherichia coli, single alanine substitution; Uniformly 15N-labelled for the NMR experiments; source: Escherichia coli, purified (DEAE-cellulose, size exclusion chromatography)
T1 sequence (looked up): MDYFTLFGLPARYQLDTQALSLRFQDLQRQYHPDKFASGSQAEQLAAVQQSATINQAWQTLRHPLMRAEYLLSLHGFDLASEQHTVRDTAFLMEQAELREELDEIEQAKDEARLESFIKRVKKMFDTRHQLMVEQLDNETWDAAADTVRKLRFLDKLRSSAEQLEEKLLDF

The target in assay [2] is T2, HscB(E97A, E100A, E104A) (E. coli, UniProt P0A6L9 1-171, E97A | E100A | E104A).
T2 construct: HscB, Escherichia coli, triple alanine substitution; also called (E97A, E100A, E104A) substitution; source: Escherichia coli, purified (DEAE-cellulose, size exclusion chromatography)
T2 sequence (looked up): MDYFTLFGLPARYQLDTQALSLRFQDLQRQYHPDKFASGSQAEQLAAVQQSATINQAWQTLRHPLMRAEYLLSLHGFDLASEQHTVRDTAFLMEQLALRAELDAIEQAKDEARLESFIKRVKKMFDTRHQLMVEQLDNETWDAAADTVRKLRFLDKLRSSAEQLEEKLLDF

For assay [3], the target named is T3, HscB(K156A) (E. coli, UniProt P0A6L9 1-171, K156A).
T3 construct: HscB, Escherichia coli, single alanine substitution; source: Escherichia coli, purified (DEAE-cellulose, size exclusion chromatography)
T3 sequence (looked up): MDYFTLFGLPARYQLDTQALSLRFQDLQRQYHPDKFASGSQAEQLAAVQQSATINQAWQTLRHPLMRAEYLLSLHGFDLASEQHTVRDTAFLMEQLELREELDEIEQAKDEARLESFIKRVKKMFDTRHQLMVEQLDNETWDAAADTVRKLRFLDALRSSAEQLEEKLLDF

Assay [4] addresses T4, HscB(L92A) (E. coli, UniProt P0A6L9 1-171, L92A).
T4 construct: HscB, Escherichia coli, single alanine substitution; source: Escherichia coli, purified (DEAE-cellulose, size exclusion chromatography)
T4 sequence (looked up): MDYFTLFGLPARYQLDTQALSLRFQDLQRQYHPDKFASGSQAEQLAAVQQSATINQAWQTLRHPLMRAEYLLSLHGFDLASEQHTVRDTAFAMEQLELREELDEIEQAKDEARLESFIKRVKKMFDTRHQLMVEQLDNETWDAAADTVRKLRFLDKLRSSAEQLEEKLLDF

Assay [5] has as its target T5, HscB(T89A) (E. coli, UniProt P0A6L9 1-171, T89A).
T5 construct: HscB, Escherichia coli, single alanine substitution; source: Escherichia coli, purified (DEAE-cellulose, size exclusion chromatography)
T5 sequence (looked up): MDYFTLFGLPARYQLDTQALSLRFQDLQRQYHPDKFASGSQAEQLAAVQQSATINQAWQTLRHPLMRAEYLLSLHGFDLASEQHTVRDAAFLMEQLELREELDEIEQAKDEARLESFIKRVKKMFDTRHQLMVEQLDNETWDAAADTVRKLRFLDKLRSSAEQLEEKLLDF

The target of assay [6] is T6, HscB(R99A) (E. coli, UniProt P0A6L9 1-171, R99A).
T6 construct: HscB, Escherichia coli, single alanine substitution; source: Escherichia coli, purified (DEAE-cellulose, size exclusion chromatography)
T6 sequence (looked up): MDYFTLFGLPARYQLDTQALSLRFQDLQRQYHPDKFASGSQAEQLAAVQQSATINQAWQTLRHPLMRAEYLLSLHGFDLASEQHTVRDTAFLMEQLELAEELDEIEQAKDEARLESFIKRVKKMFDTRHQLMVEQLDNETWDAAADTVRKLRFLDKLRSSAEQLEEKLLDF

The target in assay [7] is T7, HscB(F153A) (E. coli, UniProt P0A6L9 1-171, F153A).
T7 construct: HscB, Escherichia coli, single alanine substitution; source: Escherichia coli, purified (DEAE-cellulose, size exclusion chromatography)
T7 sequence (looked up): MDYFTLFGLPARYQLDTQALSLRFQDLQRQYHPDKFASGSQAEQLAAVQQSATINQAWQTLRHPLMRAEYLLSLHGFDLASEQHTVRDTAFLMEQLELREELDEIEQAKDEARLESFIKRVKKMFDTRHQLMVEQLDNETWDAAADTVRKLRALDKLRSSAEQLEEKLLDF

The target of assay [8] is T8, HscB(E100A) (E. coli, UniProt P0A6L9 1-171, E100A).
T8 construct: HscB, Escherichia coli, single alanine substitution; Uniformly 15N-labelled for the NMR experiments; source: Escherichia coli, purified (DEAE-cellulose, size exclusion chromatography)
T8 sequence (looked up): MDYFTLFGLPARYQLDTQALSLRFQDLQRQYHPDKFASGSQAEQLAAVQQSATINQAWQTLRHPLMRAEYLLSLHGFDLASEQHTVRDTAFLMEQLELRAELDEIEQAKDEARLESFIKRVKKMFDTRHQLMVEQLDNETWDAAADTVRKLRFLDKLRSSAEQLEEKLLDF

B1: apo-IscU (natural protein, E. coli, UniProt P0ACD4 1-128, looked up)
chain: MAYSEKVIDHYENPRNVGSFDNNDENVGSGMVGAPACGDVMKLQIKVNDEGIIEDARFKTYGCGSAIASSSLVTEWVKGKSLDEAQAIKNTDIAEELELPPVKIHCSILAEDAIKAAIADYKSKREAK
notes: No tag is mentioned; purified by ion exchange and gel filtration, so probably untagged whole protein; source: Escherichia coli, purified (DEAE-cellulose, DEAE-Biogel, size exclusion chromatography)
Take B1: the dissociation constant Kd in assay [1] was roughly 200 µM; in assay [2], roughly 30 µM; in assay [3] it was 4 to 17 µM; in assay [4], roughly 200 µM; in assay [5], 4 to 17 µM; in assay [6], roughly 53 µM. In addition, the Kd in assay [7] was roughly 200 µM; in assay [8] it was roughly 42 µM.

The values are drawn from paper PMC3040723, “Three hydrophobic amino acids in Escherichia coli HscB make the greatest contribution to the stability of the HscB-IscU complex” (BMC Biochemistry, 2011).
